In all, about 310,000 compounds went through this assay and about 2,200 (0.71%) showed an effect of 50% or more. Effects have a minus sign here. The list shows a part of the results.

The target of this experiment is human ether-à-go-go-related gene (hERG) potassium channel (human, UniProt Q12809). Put plainly: primary screen, population patch clamp on CHO cells stably expressing hERG.
human ether-à-go-go-related gene (hERG) potassium channel, sequence (Q12809 whole entry, looked up): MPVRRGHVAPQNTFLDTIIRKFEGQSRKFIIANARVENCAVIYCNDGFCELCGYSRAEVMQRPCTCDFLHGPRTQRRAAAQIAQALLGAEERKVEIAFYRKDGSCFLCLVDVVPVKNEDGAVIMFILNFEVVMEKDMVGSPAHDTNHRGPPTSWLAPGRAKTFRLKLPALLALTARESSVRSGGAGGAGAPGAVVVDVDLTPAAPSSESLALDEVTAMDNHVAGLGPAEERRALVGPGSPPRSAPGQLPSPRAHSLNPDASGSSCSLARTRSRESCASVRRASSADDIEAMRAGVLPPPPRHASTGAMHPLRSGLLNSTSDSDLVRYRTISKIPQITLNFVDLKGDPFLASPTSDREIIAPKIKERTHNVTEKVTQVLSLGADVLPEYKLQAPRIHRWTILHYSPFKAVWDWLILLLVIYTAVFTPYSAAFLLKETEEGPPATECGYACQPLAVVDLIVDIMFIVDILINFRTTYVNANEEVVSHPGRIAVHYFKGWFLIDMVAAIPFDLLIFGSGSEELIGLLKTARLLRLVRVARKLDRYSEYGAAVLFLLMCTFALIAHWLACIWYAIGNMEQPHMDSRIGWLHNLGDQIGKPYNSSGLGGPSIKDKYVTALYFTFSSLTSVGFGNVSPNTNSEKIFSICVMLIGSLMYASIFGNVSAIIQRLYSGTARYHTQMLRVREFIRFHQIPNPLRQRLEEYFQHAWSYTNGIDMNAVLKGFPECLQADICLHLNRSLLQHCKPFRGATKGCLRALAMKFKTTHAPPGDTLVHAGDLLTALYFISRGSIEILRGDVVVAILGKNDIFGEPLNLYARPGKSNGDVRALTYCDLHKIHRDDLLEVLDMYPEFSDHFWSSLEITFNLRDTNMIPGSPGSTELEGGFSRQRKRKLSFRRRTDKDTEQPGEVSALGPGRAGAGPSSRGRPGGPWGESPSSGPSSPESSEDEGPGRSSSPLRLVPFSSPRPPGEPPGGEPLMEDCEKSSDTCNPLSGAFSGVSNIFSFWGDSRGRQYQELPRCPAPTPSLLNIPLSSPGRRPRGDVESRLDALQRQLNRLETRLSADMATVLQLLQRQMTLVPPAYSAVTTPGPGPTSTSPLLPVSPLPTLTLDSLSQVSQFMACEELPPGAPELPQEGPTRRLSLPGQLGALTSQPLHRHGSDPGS
Regarding `CCOc1cccc(OCCCOc2cccc3cccnc23)c1`, the “hERG current change (%, negative = inhibition) at 1uM” value was 8.16%. Then `COc1ccc(CN2C3CCCC2CC(NC(=O)/C=C/c2ccccc2)C3)cc1` (stereo not shown), with -84.2%; and `CC(C)(C)CC(=O)Nc1ccc(-c2cn3cccnc3n2)cc1`, with 8.99%.

`CSc1ncc(Cl)c(C(=O)C(C#N)c2nc3c(C)cc(C)cc3c(=O)[nH]2)n1` (stereo not shown): the “hERG current change (%, negative = inhibition) at 1uM” value was 13.6%. The value for `Cc1ccc2cccc(SCC(=O)NCc3ccco3)c2n1` was 11.5%. Turning to `Cc1cccc(NC2=NC3(CCCCC3)N=C(N)N2)c1C`, the “hERG current change (%, negative = inhibition) at 1uM” value came out at 11.6%. For the molecule `O=C(COc1ccc(S(=O)(=O)N2CCOCC2)cc1Cl)NC1CC1`, the “hERG current change (%, negative = inhibition) at 1uM” value is given as -13.5%.

With `CC(=O)Nc1ccc2c(c1)CCc1ccccc1-2`, the “hERG current change (%, negative = inhibition) at 1uM” value stood at 12.1%. As for `O=C(NCc1cccnc1)C1CCCN1S(=O)(=O)c1ccc(Cl)cc1` (stereo not shown), the “hERG current change (%, negative = inhibition) at 1uM” value is on record as -3.54%. Then `C#CCN(C(=O)c1ccc(OC)c(OC2CCN(C(C)C)CC2)c1)C1CCCCC1`, with -12.1%; and `Cc1cc(C)n(CCc2nc(-c3ccc(C(C)(C)C)cc3)cs2)n1`, with 9.29%. For `COc1cc(C2C=C(Nc3ccccc3)C(=O)N2c2ccccc2)ccc1O` (stereo not shown), the “hERG current change (%, negative = inhibition) at 1uM” value is 5.01%.

As to `Nc1nc(-c2ccc(F)cc2)cs1`, the “hERG current change (%, negative = inhibition) at 1uM” value is -0.647%. Take `CC(=O)C12OC1CC1C3CCC4=CC(=O)CCC4(C)C3CCC12C` (stereo not shown): the “hERG current change (%, negative = inhibition) at 1uM” value worked out at 4%. Turning to `CCOC(=O)N1CCC(NC(=O)c2cc3c(=O)[nH]c4ccccc4c3n2C)CC1`, the “hERG current change (%, negative = inhibition) at 1uM” value is recorded as -6.01%. `COC(=O)c1ccc(C2C(C(C)=O)=C(O)C(=O)N2CCO)cc1` (stereo not shown): the “hERG current change (%, negative = inhibition) at 1uM” value came out at 6.53%. With `CC(=O)Nc1c2c(nn1-c1cccc(Cl)c1)CS(=O)(=O)C2`, the “hERG current change (%, negative = inhibition) at 1uM” value stood at 8.36%. For the molecule `Cc1cc(C(=O)NC(C)c2ccc3c(c2)OCO3)cs1` (stereo not shown), the “hERG current change (%, negative = inhibition) at 1uM” value was -3.5%. The value for `CCN(CC)C(=O)c1cccc2c1C(=O)c1ccccc1-2` was 9.86%. Then `CC1CCCN(C(=O)CCS(=O)(=O)c2cc3c(cc2Cl)NC(=O)CO3)C1` (stereo not shown), with -1.43%; and `Cc1nn(C)c(C)c1CNC(=O)Nc1ccc(Cl)cc1`, with 4.96%; and `COc1ccc(/C=N/NS(=O)(=O)c2ccccc2)cc1OS(=O)(=O)c1ccccc1`, with 13.8%.

Consider `N=C(N)c1ccc(/C=C/c2ccc(C(=N)N)cc2O)cc1.O=S(=O)(O)CCO`, for which the “hERG current change (%, negative = inhibition) at 1uM” value is 8.45%. Then `O=C(Nc1ccc(S(=O)(=O)Nc2cnc3ccccc3n2)cc1)c1ccccc1Br`, with 11.6%.

Consider `O=C(COc1ccccc1)NC1CCCN(Cc2ccccc2F)C1` (stereo not shown), for which the “hERG current change (%, negative = inhibition) at 1uM” value is listed as 3.63%. Then `CN(C(=O)CS(=O)(=O)Cc1ccccc1Cl)c1ccccc1`, with 14.7%; and `C=CCn1c(NCc2c[nH]c3ccccc23)nc2ccccc21`, with 2.41%. The value for `Cc1cc(C)n(-c2nc(C)nc3c2cnn3-c2ccccc2)n1` was 14.5%; that for `CCOc1ccc(N(CC(=O)NC2CCCCCC2)S(=O)(=O)c2c(C)noc2C)cc1` was -8.01%. The value for `COc1cc2c(cc1OC)C(c1cccs1)N(C(=S)NC(C)C)CC2` (stereo not shown) was 10.7%. With `Cc1cc(S(=O)(=O)N2CCN(c3ccccc3O)CC2)c(C)s1`, the “hERG current change (%, negative = inhibition) at 1uM” value came out at 8.12%. Consider `CCCC[C@H](CN[C@@H](CNC)[C@H](C)CC)NCCC12CCC(CC1)C2`, for which the “hERG current change (%, negative = inhibition) at 1uM” value is on record as 14.1%. Turning to `CCS(=O)(=O)N1CCN(Cc2nc3ccccc3c(=O)[nH]2)CC1`, the “hERG current change (%, negative = inhibition) at 1uM” value is on record as 4.91%. The value for `COC(=O)C(C(=O)OC)C(C(=O)OC)C(C(=O)OC)C(=O)OC` was 2.29%; that for `COC(=O)N/N=C/c1cn(CCCOc2ccc(C)cc2)c2ccccc12` was 3.27%.

For the molecule `O=C(CCn1ccnc1)Nc1cc(Cl)ccc1O`, the “hERG current change (%, negative = inhibition) at 1uM” value worked out at 13%. In the case of `CC1CC(C)CN(CCCNC(=O)C2CCC(=O)N2C2CCCC2)C1` (stereo not shown), the “hERG current change (%, negative = inhibition) at 1uM” value is 11.8%. The value for `CC(C(=O)Nc1ncc([N+](=O)[O-])s1)N1C(=O)c2ccccc2S1(=O)=O` (stereo not shown) was 7.88%; that for `COc1cccc(C(=O)Nc2ccc(NC(=O)C3CC=CCC3C(=O)O)cc2)c1` (stereo not shown) was 17.4%. Then `COc1c(Br)cc(/C=N/n2c(-c3ccccc3)n[nH]c2=S)c(O)c1Br`, with 20.7%. The value for `CC(O)CSc1nc2c(c(=O)[nH]c(=O)n2C)n1Cc1ccccc1` (stereo not shown) was -18.4%. Turning to `CCN(CC(=O)Nc1c(F)cccc1F)C(=O)C(C)SCc1nc2sc(C)c(C)c2c(=O)[nH]1` (stereo not shown), the “hERG current change (%, negative = inhibition) at 1uM” value is on record as -10.3%. Then `Cc1ccc(Cl)cc1N1CCN(C(c2ccc(C#N)cc2)c2nnnn2C2CCCC2)CC1` (stereo not shown), with 11.7%; and `CC(=O)N1c2ccc(S(=O)(=O)NCC3CCC(C(=O)Nc4cc(C)ccn4)CC3)cc2CC1C` (stereo not shown), with 5.08%.

Consider `CC(/C=N/NC(=O)c1cc(-c2cccn2C)n[nH]1)=C\c1ccccc1`, for which the “hERG current change (%, negative = inhibition) at 1uM” value is given as 9.77%. Then `CCn1c(SCC(=O)NNC(=O)c2ccc(C)cc2)nnc1C(C)C`, with 17.5%; and `COc1cc(C#N)c(NC(=S)N2CCOCC2)cc1OC`, with 13.5%. With `Oc1[nH]c2ccc(Br)cc2c1N=Nc1nn[nH]n1`, the “hERG current change (%, negative = inhibition) at 1uM” value is listed as 9.76%. Then `COC(=O)c1cc(C)nc(N)c1C#N`, with -1.72%; and `CN(C)/C=C(/C(=O)c1ccc(Cl)c(Cl)c1)c1nnnn1-c1ccccc1`, with 11.4%; and `O=C(CCCOc1ccc(Cl)cc1Cl)N/N=C/c1ccccc1O`, with 29.1%. The value for `CCCCCCCNC(=O)C1(CC2CC(c3ccccc3)=NO2)CCNCC1` (stereo not shown) was -26.2%; that for `O=C(Nc1ccc2c(c1)OCCO2)c1ccccn1` was 13.3%.

Regarding `COc1ccc(-c2nc(NC(C)=O)sc2-c2ccc(OC)cc2)cc1`, the “hERG current change (%, negative = inhibition) at 1uM” value is on record as 17.6%. Then `COc1ccc(C(=O)Nc2ccc(O)cc2C(=O)O)cc1`, with 16.6%. The value for `COc1ccc(Cc2nnc(NC(=O)C3CC(=O)N(c4ccc(OC)cc4)C3)s2)cc1` (stereo not shown) was 11.7%; that for `O=C(O)CCCCC1CCSS1` (stereo not shown) was 6.98%.

Regarding `COc1ccc(C(=O)Nc2ccc(NC(=O)C3CCCCC3)nc2)cc1`, the “hERG current change (%, negative = inhibition) at 1uM” value amounted to 29.4%.

Source of the values: publication PMC4336329 (PLoS ONE, 2015).
